Measurements as given in PubChem BioAssay AID1508624 (National Center for Advancing Translational Sciences (NCATS), 2021).
About 120 (0.25%) of roughly 48,000 compounds were called active. About 4% were inconclusive and are not listed. Calls come from the whole dose curve; as a rule, active = well fitted activation curve with a large enough effect; inconclusive = small, poorly fitted or top-dose-only effect, or another doubt; inactive = no such curve, though single readings can be large or run the other way. The list shows a part of the results.

assay: Primary qHTS for Identification of Small Molecule Activators of Huntingtin-Antisense Promoter Activity; conditions: HEK293 HTT-AS promoter firefly luciferase reporter, 24 h; series mostly up to 57.5 µM; activity change, positive = activation: at the top concentration; note: nearly all actives have a fitted effect of over 55% in size
Summary of the method: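 Firefly luciferase signal from promoter-reporter HEK293 cells was scaled between vehicle (0%) and zero RLU (-100%). Compounds were tested at final concentrations of up to 57.5 uM over 24 h at 37 degrees C. PTC124 at 50 uM final served as control inhibitor.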
Potency is the fitted concentration of half-maximal effect.

Activity change, positive = activation, inactive:
Cc1cc(C)cc(OCC(=O)Nc2cccc3cccnc23)c1 -1.08%
CCCCCCC(=O)Nc1ccc2nc3c(=O)n(C)c(=O)n(C)c3nc2c1C 0.447%
CCCc1cnc2c(c1SCC(=O)NCc1ccc(C)cc1)c(=O)n(C)c(=O)n2C -10.8%
CCOC(=O)c1ccc(N2C(=O)c3n[nH]c(-c4ccco4)c3C2c2ccc(C(=O)OC)cc2)cc1 (stereo not given) -39.7%
O=C(c1ccc2c(c1)N(Cc1ccc(Cl)cc1)C(=O)c1ccccc1S2(=O)=O)N1CCCC1 -40.9%
COc1ccccc1CCNC(=O)Cc1c(C)c2cc(Cl)c(O)cc2oc1=O -8.96%
CCCCOc1ccccc1C1CC(=O)Nc2ccc3ccccc3c21 (stereo not given) -27.5%
CC(C)c1ccc(S(=O)(=O)N2CCN(Cc3cccc(F)c3)CC2)cc1 -23.9%
CC(=O)OCC(=O)[C@@]1(O)CCC2C3CCC4=CC(=O)CC[C@]4(C)C3[C@@H](O)C[C@@]21C (stereo not given in full) -15.2%
CCOc1ccc(CNC(=O)c2oc3c(c2C)-c2nn(Cc4cccc(Cl)c4)cc2CC3)cc1 -30.7%
COc1ccc(C)c2sc(NC(=O)c3ccc(S(=O)(=O)N(C)C)cc3)nc12 -1.84%
Cc1cc(NC(=O)N2CCC(CN3CCCCCC3)CC2)ccc1Br 17.1%
COc1cccc(NC(=O)c2c(C)nn(-c3cccc(C)c3)c2-n2cccc2)c1 -21.5%
O=C(Cn1ccc2cc(S(=O)(=O)N3CCCCCC3)ccc21)NCc1ccccc1Cl -36.3%
COC(=O)c1ccc2c(=O)n(CCCCCC(=O)NCCc3ccccc3)c(=O)[nH]c2c1 2.95%
CN(CCOc1ccc(CC2SC(=O)NC2=O)cc1)c1ccccn1 (stereo not given)
CCC1Sc2ccccc2N(CC(=O)NCc2ccc(C)cc2)C1=O (stereo not given) 10.4%
O=S(=O)(c1ccc(Cl)cc1)c1nnn2c1nc(NC1CCCC1)c1sccc12 -16.4%
Cc1noc2ncnc(N3CCN(c4cccc(C(F)(F)F)c4)CC3)c12 -45.1%
COc1ccc(N2CCN(C(CNS(=O)(=O)c3ccc(OC)c(C)c3)c3ccco3)CC2)cc1 (stereo not given) -33.1%
Cc1cccn2c(=O)c3cc(C(=O)NCC(C)C)sc3nc12 -7.4%
COc1ccc(C)cc1-n1c(-c2ccc(Cl)cc2)cc2c1CC(C)(C)CC2=O -9.23%
COc1ccc(-c2nc(Cn3c(=O)cc(C)c4c(C)nn(-c5ccccc5)c43)c(C)o2)cc1OC -7.57%
Nc1c(C(=O)Nc2ccccc2Br)sc2nc(-c3cccs3)ccc12 -10.2%
O=C(CSc1nc2c([nH]c3ccccc32)c(=O)n1-c1ccccc1)Nc1ccc2c(c1)OCO2 -23.8%
CN1CCN(CCC(=O)N2c3ccccc3Sc3ccc(C(F)(F)F)cc32)CC1 -21.6%
CCc1ccc(OCC2c3cc(OC)c(OC)cc3CCN2C(=O)c2ccc(S(=O)(=O)N3CCCC3)cc2)cc1 (stereo not given) -18.1%
CCn1cc(C(=O)NCCCOC(C)C)c(=O)c2cc(S(=O)(=O)N3CCOCC3)ccc21 -9.35%
CCOC(=O)c1cnc2c(ccc3ccccc32)c1Nc1ccc(N(C)C)cc1 -9.86%
CCCN(C(=O)c1cc(S(=O)(=O)N2CCc3ccccc32)cn1C)c1ccc(OCC)cc1 -37.4%
Cc1ccc(Cl)cc1N1CCN(c2ncnc3c2nc2n3CCCC2)CC1 -5.32%
Cc1ccccc1NC(=O)C(=O)NCC(c1ccc2c(c1)OCO2)N1CCN(c2ccccc2)CC1 (stereo not given) -13.1%
CCOc1ccc(C2C(C(=O)Nc3ccccc3)=C(C)Nc3nc(-c4ccccc4Cl)nn32)cc1OC (stereo not given) -19.6%
COc1ccc(CNC(=O)Cn2c(=O)oc3cc(S(=O)(=O)NCc4ccccc4)ccc32)cc1 -31.5%
CCOc1ccc(Nc2cc(C)nc3nncn23)cc1 -16.2%
Cc1ccccc1NC(=O)Cn1cc(S(=O)(=O)c2ccccc2)c(=O)c2ccccc21 -1.27%
NC1=N[C@H]2[C@H](CS[C@H]2CCCCC(=O)O)N1 -10.2% [at 25.1 µM, percent change from vehicle, -100% = no light]
COc1ccc(NC(=O)c2cc3c(-c4ccccc4F)nn(C)c3s2)c(OC)c1 -15.2%
CCC(C)NC(=O)c1cc(Sc2cccc(Cl)c2)nc2ccccc12 (stereo not given) -18.3%
FC(F)(F)c1cccc(N2CCN(c3ncnc4c3nc3n4CCCC3)CC2)c1 -89.3%
O=C(Cn1nc(C(F)(F)F)c2c1CCCC2)Nc1cccc(Cl)c1 -51.6%
CCCn1c2ccccc2c2cnn(CC(=O)NCCCN3CCCCC3CC)c(=O)c21 (stereo not given) -18.4%
Cc1ccc(NC(=O)Cn2c(=O)n(-c3ccc(C)cc3)c(=O)c3c2cnn3C)cc1 -12.3%
Cc1ccc(Cc2nc3ccccc3nc2SCC(=O)N2CCC(C)CC2)cc1 -37.3%
Cc1ccc(-n2nc(C)c3c(C)c(CCC(=O)NC(C)c4ccccc4)c(C)nc32)cc1 (stereo not given) -1.01%
Fc1ccc(CN2CCc3nc(N4CCN(c5ccccc5F)CC4)ncc3C2)c(F)c1 -27.6%
CCOc1ccc(NC(=O)c2c(C)oc3nc(C)nc(N4CCCC4)c23)cc1 -12.4%
COc1cccc(C(=O)Nc2ccc3nc(SCC(=O)N(C)c4ccccc4)sc3c2)c1 -50.2%
Cc1ccc(CNC(=O)c2ccc(CSc3nc4ccncc4n3Cc3ccc(C)cc3)cc2)cc1 -31.9%
COc1ccc(CCNC(=O)CCc2cn(Cc3ccccc3Cl)c3ccccc23)c(OC)c1 -13.3%
O=C(NCCc1ccc(Cl)cc1)C1CCN(Cc2cc3ccccc3n2Cc2ccccc2)CC1 -28.1%
CCOc1ccc(-c2cc(NC(=O)c3ccccc3)c(C(=O)OC)s2)cc1 -3.86%
COc1ccccc1CCNC(=O)c1cccn1-c1nnc(N2CCCC2)s1 -4.51%
Cc1cc(C)c(NC(=O)Cn2c(=O)oc3cc(S(=O)(=O)N4CCCCCC4)ccc32)c(C)c1 -42.5%
CCOC(=O)N1CCC(NC(=O)c2cnn(-c3ccc(OC)cc3)c2C2CCN(C(=O)OC(C)(C)C)CC2)CC1 -2.93%
Cc1ccccc1NC(=O)COc1ccc2oc3c(c2c1)CCCC3 -4.21%
O=C(CN1C(=O)COc2ccc(S(=O)(=O)N3CCCCCC3)cc21)N1CCN(c2ccc(F)cc2)CC1 -18.2%
COc1ccc(-c2cc3nc(C)c(CCC(=O)NCCc4ccc(Cl)cc4)c(C)n3n2)c(OC)c1 -12.7%
Fc1cc(-c2cccc3ncc(-c4cnn(C5CCNCC5)c4)nc23)cc(F)c1CN1CCOCC1 -12.3%

Potency, active:
CC(=O)Nc1cccc(-c2nc(-c3ccccc3)no2)c1 1120 nM
